Laboratory results as given in paper PMC3335838.
No constants are given. Whether binding was seen depends on the method and setting. For part of these data: In cells and extracts the contact can be indirect. Some binding calls cover weakened binding; strength is not graded here. For part of these data: Tags and fused reporters may be left off the sequences shown. Each block holds one binder with its values, some of them ahead of it.

Experiments:
YN-APC10 (Arabidopsis) = molecular target: T1, YN-APC10 (Arabidopsis) (UniProt Q9ZPW2); experiment: split reporter; BiFC (split YFP): YN and YC plasmids co-bombarded with NLS-CFP into hypocotyl cells of 4 day-old etiolated mustard seedlings; fluorescence microscopy after a night at 25°C in darkness
T1 sequence: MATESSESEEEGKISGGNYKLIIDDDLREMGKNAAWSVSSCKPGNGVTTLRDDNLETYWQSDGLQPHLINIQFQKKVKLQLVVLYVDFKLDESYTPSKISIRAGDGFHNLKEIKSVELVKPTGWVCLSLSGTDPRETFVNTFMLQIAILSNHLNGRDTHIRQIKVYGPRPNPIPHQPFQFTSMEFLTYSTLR

[1] = molecular target: T2, DRB4 (Double-stranded RNA Binding protein 4), full length, yeast two-hybrid fusion (Arabidopsis) (UniProt Q8H1D4); experiment: two-hybrid; pair-wise, cross-mating of S. cerevisiae PJ69-4a and PJ69-4 alpha; diploids on SD-LW, interactions selected on -LWA; 28°C for 3 days (Figure 2)
T2 sequence: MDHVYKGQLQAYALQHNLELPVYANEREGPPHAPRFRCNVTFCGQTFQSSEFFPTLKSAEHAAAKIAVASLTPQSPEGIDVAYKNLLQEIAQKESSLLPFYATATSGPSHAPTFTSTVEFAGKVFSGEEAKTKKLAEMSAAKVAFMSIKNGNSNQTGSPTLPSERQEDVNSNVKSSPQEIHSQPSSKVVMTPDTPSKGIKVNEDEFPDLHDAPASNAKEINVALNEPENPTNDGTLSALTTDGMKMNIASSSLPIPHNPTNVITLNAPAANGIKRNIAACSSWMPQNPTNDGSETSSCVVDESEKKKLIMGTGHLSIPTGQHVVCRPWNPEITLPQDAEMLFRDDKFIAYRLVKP

[2] = molecular target: T3, APC10/DOC1, yeast two-hybrid fusion (Arabidopsis) (UniProt Q9ZPW2); experiment: as above
T3 sequence: T1 sequence

GST-APC10 (Arabidopsis) = molecular target: T4, GST-APC10 (Arabidopsis) (UniProt Q9ZPW2); experiment: pull-down; GST fusion proteins on glutathione-Sepharose beads incubated with in vitro translated [35S]methionine-labelled DRB4 for 4 h at 4°C; washed with extraction buffer (150 mM NaCl, 100 mM Tris pH 7.5, 0.5% NP40); autoradiography; only the target purified
T4 sequence: T1 sequence

[3] = molecular target: T5, GST-CDC20-2 (Arabidopsis) (UniProt Q9S7I8); experiment: as above
T5 sequence: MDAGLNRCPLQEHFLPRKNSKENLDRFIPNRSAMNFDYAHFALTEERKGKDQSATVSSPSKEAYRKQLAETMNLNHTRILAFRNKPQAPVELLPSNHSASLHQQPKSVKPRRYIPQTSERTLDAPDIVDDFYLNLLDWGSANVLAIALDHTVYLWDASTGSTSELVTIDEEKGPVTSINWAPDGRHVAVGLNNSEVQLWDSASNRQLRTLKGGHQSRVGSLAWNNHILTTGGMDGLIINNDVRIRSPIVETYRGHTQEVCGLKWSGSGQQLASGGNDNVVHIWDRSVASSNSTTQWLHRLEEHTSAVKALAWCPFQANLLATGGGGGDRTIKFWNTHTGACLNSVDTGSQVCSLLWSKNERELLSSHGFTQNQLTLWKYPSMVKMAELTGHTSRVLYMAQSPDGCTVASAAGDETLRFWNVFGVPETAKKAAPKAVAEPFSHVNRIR

[4] = molecular target: T6, GST-CDC20-1 (Arabidopsis) (UniProt Q9SZA4); experiment: as above
T6 sequence: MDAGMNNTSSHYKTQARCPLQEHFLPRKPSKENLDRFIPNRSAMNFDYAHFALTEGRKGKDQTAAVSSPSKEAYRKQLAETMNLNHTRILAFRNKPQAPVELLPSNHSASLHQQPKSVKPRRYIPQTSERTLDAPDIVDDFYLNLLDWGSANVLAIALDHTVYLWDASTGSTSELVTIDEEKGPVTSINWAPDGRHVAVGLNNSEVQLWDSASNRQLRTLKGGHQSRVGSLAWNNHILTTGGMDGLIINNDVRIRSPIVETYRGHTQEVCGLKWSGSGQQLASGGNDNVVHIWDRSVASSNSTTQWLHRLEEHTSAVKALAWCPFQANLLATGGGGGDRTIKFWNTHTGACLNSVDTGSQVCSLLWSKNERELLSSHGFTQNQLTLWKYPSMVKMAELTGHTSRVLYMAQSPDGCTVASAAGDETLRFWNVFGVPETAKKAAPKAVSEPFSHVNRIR

[5] = molecular target: T7, GST-CDC20-3 (Arabidopsis) (UniProt Q9S7H3); experiment: as above
T7 sequence: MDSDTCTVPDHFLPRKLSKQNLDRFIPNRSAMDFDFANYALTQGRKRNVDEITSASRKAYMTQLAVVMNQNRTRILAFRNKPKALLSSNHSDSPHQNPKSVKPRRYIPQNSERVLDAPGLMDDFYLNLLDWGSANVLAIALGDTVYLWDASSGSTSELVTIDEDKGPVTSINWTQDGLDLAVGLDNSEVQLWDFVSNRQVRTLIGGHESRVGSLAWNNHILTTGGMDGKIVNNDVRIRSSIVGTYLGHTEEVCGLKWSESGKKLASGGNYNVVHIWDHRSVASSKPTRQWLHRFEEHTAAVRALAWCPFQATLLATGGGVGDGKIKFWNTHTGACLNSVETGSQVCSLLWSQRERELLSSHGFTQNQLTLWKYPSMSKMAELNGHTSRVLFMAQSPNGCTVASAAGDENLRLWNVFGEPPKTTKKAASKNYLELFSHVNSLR

B3: DRB4 (Double-stranded RNA Binding protein 4), full length, yeast two-hybrid fusion (protein, UniProt Q8H1D4 1-355)
chain: T2 sequence
binding [1]: binds | binding [2]: binds

B5: [35S]methionine-labelled DRB4 (protein, UniProt Q8H1D4 1-355)
chain: T2 sequence
modifications: [35S]methionine-labelled
binding (GST-APC10 (Arabidopsis)): binds | binding [3]: no binding | binding [4]: no binding | binding [5]: no binding

Results, then the binder that gave them:

binding (YN-APC10 (Arabidopsis)): no binding
B1: YC-DRB1 (protein, UniProt O04492 1-419)
chain: MTSTDVSSGVSNCYVFKSRLQEYAQKYKLPTPVYEIVKEGPSHKSLFQSTVILDGVRYNSLPGFFNRKAAEQSAAEVALRELAKSSELSQCVSQPVHETGLCKNLLQEYAQKMNYAIPLYQCQKVETLGRVTQFTCTVEIGGIKYTGAATRTKKDAEISAGRTALLAIQSDTKNNLANYNTQLTVLPCEKKTIQAAIPLKETVKTLKARKAQFKKKAQKGKRTVAKNPEDIIIPPQPTDHCQNDQSEKIETTPNLEPSSCMNGLKEAAFGSVETEKIETTPNLEPPSCMNGLKEAAFGSVETEKIETTPNLEPPSCMNGLKEAAFGSVETEKIETTPNLEPSSCMNGLKEAAFGSVETEKIETTPNLEPPSCMNGLKEAAFGSVETEKIETTPNLESSSCMSGLKEAAFGSVETEASHA

binding (YN-APC10 (Arabidopsis)): no binding
B2: YC-DRB2 (protein, UniProt Q9SKN2 1-434)
chain: MYKNQLQELAQRSCFNLPSYTCIREGPDHAPRFKATVNFNGEIFESPQYCSTLRQAEHSAAEVALNALSNRGPSHSLAARILDETGVYKNLLQEIAQRVGAPLPRYTTFRSGLGHQPVFTGTVELAGITFTGDPAKNKKQAEKNAAMAAWSSLKQLAKETSSSMPEPENIDELEQVIIARALINYRIKENIGTGSSSSAPVPFAKKFFMQNLRPTSPQPSPATTSRILPFICPKQPSRSSRSSLAATSGIDRIMAAALESRSYQRPQQRFANPPYVPMRQFRSQCHGMAPPVTIRTAVPVFSAPPMPPPPCTNNTQLPSSVYVPSLMRTAPPVRIAPPVTIRTAVPVFASAPPVRIRTAVKPTVEAGETRISSVQEKESIPVLPDSLEIGVEGSTITITDCEKTASKETERAEFKDSSKGEPETARERLENLKI

binding (YN-APC10 (Arabidopsis)): binds
B4: YC-DRB4 (protein, UniProt Q8H1D4 1-355)
chain: T2 sequence
